# ± gives the standard deviation. This is a selection; strong and weak results do not stand in their true shares.
# Tested on: MIWI (PIWIL1) piRISC loaded with piRNA #1 (30 nt)
# Assay: pre-steady-state target cleavage rate (min^-1); MIWI and MILI are mouse PIWI proteins and EfPiwi is from a freshwater sponge; tags in brackets are library labels; higher = faster piRNA-guided slicing of the target
# Settings: guide: piRNA #1 5'p-UGAGGUAGUAGGUUGUAUAGUAUCCAGAGG; auxiliary factor: 500 nM mouse GTSF1
# Procedure, shortened: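 Cleave-'n-Seq: 1 nM active affinity-purified piRISC with one synthetic guide and 0.1 nM transcribed, DNA-blocked target RNA library were mixed, with or without 500 nM GTSF1 partner protein, in HEPES–potassium acetate buffer at 33 °C for 0–8 or 0–960 min. Uncleaved targets were sequenced and normalised to depth and to weakly complementary targets, three trials were pooled, and k3 was capped at 0.0001 min^-1. The pre-steady-state cleavage rate was fitted […].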
row,Sequence,pre-steady-state target cleavage rate
1,GCUCUGGAUACUAUACAACCAACAACCUCA,0.0818 ± 0.013
2,GGAGACCUUACUAUUCAACCAACUACCUCA,0.0233 ± 0.0045
3,GGAGACGAUACUAUUCAACCUAGUACCUCA,0.35 ± 0.035
4,GCUCUGGAUACAAUACAACCUACUACCUGA,0.9 ± 0.11
5,CCUCUGGAUAGUAUACAAGCUACUACCUCA,0.0677 ± 0.016
6,GGAGACGAUACAUAACAACCUACUACCUCA,0.33 ± 0.05
7,GGAGAGGAUACAUUACAACCUACUACCUCA,1.1 ± 0.07
8,GGAGACGAUACUAUACAACCAACUUCCUCA,0.0447 ± 0.0069
9,GGAGACCUAACUAUACAACCUACUACGUCA,0.655 ± 0.062
10,GGACGGAUACUAUACAACCUACUACCUCA,1.86 ± 0.11
11,GGAGACCUAUCUAAACAACCUUCUACCUCA,0.00561 ± 0.0024
12,GGAGACCUAUGAUAAAAACCUACUACCUCA,< 0.0001
13,GGAGUGCAUACUAUACAACCUUCUACCUCA,0.664 ± 0.041
14,GCUCUGGAAACUAUACAACCUACUACCUGA,0.961 ± 0.17
15,GGAGACCUAACCUAUACAACCUACUACCUCA,0.322 ± 0.13
16,GGACUGGAUAGUAUACAACCUACUAGCUCA,0.00517 ± 0.0031
17,GGUCUGGUUACUAUACAACCUAGUACCUCA,0.475 ± 0.046
18,GGAGUGGAUACUUUACAACCUACUAGCUCA,0.014 ± 0.0035
19,CCUCUGGAUACUAAUGAACCUACUACCUCA,0.702 ± 0.086
20,CCUCUCGAUACUAUACAAGCUACUACCUCA,1.58 ± 0.081

row,Sequence,pre-steady-state target cleavage rate
1,CCUCUGGAUACAUAACAACCUACUACCUCA,1.24 ± 0.13
2,GGAGACCUUACUAAUCAACCUACUACCUCA,0.139 ± 0.023
3,GGACUGGAUACAAUACAAGCUACUACCUCA,0.683 ± 0.041
4,GGAGACCAUACUAUACUAGCUACUACCUCA,0.181 ± 0.019
5,GGAGACCUAUGCAUACAACCUACUACCUCA,0.063 ± 0.014
6,CCUCUGGAUACAAUACAACCUAGUACCUCA,0.265 ± 0.046
7,GGACUGGAUACAAUACAUCCUACUACCUCA,1.15 ± 0.093
8,GGAGAGGAUACUAUACAACCUACAACGUCA,0.00836 ± 0.0037
9,GGAGACCUAACUAUACUACCUAGUACCUCA,0.0189 ± 0.0053
10,CCUCUGGAACUAUACAACCUACUACCUCA,2 ± 0.12
11,GGAGACCUAACUUUACAACCUAGUACCUCA,0.155 ± 0.042
12,GGAGUGGAUACAAUACAACCUACAACCUCA,0.345 ± 0.032
13,GGAGACGUUAGUAUACAACCUACUACCUCA,0.549 ± 0.049
14,GGUCUGGAUACUAUACAACCUACUACCUCC [g2:g28:cont:t1C],1.54 ± 0.11
15,CCUCUGGAAACUAUACAACCUACUACCUCA,1.97 ± 0.11
16,GGAGUGGAUACUAAAGAACCUACUACCUCA,1.2 ± 0.083
17,GGAGAGGUUACUAUACAACCUACUACCUCA,1.49 ± 0.07
18,GGAGACCUUACUAUAGAACCUUCUACCUCA,0.176 ± 0.022
19,CCUCUGGAUACUGAUACAACCUACUACCUCA,1.52 ± 0.089
20,GCUCUGGAAACUAUACAACGUACUACCUCA,1.26 ± 0.095

# From the supplement of paper PMC10338343
